Assay results reported in ChEMBL document CHEMBL4888484, “Replenishing the malaria drug discovery pipeline: Screening and hit evaluation of the MMV Hit Generation Library 1 (HGL1) against asexual blood stage Plasmodium falciparum ,using a nano luciferase reporter read-out” (2022).
The whole screen tested about 150,000 compounds, of which about 540 (0.36%) showed an effect of 50% or more. The list shows a part of the results.

Test system: Plasmodium falciparum
Assay: Primary screen in NF54 nanoGlo assay, in single point, at 2uM, 72h; a lower Z score goes with more inhibition
Assay type: functional, Erythrocyte
Settings: timepoint 72 hour

SMILES | % Inhibition [%] | Z score
CCC(Oc1ccc2c(c1)C(c1ccc(F)cc1)N(C(=O)C1CCCC1)CC2)C(=O)NC(C)C (centres undefined) | -4 | 0.76
COCCc1noc(CCn2c(C)cc(O)cc2=O)n1 | -7 | 1.07
CC1(C)C(CNC(=O)CCn2cc(C(N)=O)c(=O)[nH]c2=O)C1(C)C | 19 | -2.23
Cc1n[nH]c(C)c1CN1CCC[C@H](N(C)C)CC1 | -9 | 1.16
O=C1N(Cc2ccccc2)c2cccc3cccc(c23)N1Cc1ccccc1 | 8 | -1.58
COCC(=O)Nc1cc(C(=O)N(C)Cc2ccc(F)cc2)c2c(c1)ncn2CCc1ccccc1 | -11 | 1.62
COCCC1(CNC(=O)N[C@@H](C)c2nc(C)cs2)CCCC1 | -4 | 0.46
OC1(c2ncc(Br)s2)CCC1 | -17 | 2.46
Cc1ccc2cc1Oc1cccc(c1)CO[C@H]1CN(C(=O)CN3CCCN(C)CC3)C[C@@H]1NC(=O)CN(C)C2=O | -21 | 2.7
COc1ccc([C@@]2(CC(=O)N3CCNC(=O)CC3)CC(=O)N(C3CCCC3)C2=O)cc1 | -3 | 0.6
CN1CCN([C@H]2CCN(C(=O)CCc3ccccc3)C[C@H]2CCCO)CC1 | 1 | -0.13
Cc1cc(Oc2ncccc2C#N)ccc1NC(=O)c1cn(C)cn1 | 22 | -2.55
CC(=O)Nc1ccc(NC(=O)c2ccc(S(=O)(=O)N3CCCCCC3)s2)cc1 | -16 | 2.15
O=C(Cn1cncc(C(=O)NC2CCCC2)c1=O)Nc1ccc2c(c1)OCCO2 | 11 | -1.82
NC(=O)c1csc(C(=O)N2C[C@H](c3ccccc3)c3ccccc32)c1 | -6 | 0.9
C[C@@H](CC(C)(C)N1CCOCC1)OC(=O)C(C)(C)C | -8 | 1.58
C[C@H]1CCCCN1C1CN(Cc2cnc(N3CCCC3)s2)C1 | 14 | -1.81
CS(=O)(=O)N1CCC(CS(=O)(=O)Nc2cccc(F)c2)CC1 | 15 | -1.83
CN(C)c1ccc(S(=O)(=O)NC[C@@H]2CCN(C)[C@H]2c2cccnc2)cn1 | -1 | 0.25
O=C(NC[C@H]1CCN(C/C=C/c2ccccc2)C1)c1cncs1 | -2 | 0.28
O=C(N[C@H]1CC[C@@H](CO)CC1)c1cccc(NCc2ccccn2)c1 | -25 | 3.84
COCCC(C)(C)C(=O)N[C@@H]1C[C@H]1c1cc(F)c(F)c(F)c1 | 1 | -0.08
